{"source": "PubChem BioAssay AID588342", "about": "(National Center for Advancing Translational Sciences (NCATS), 2011)", "note": "Among all 360,000 compounds or so, about 25,000 (6.9%) were called active. The inconclusive results got no clear call from the source; some entries with a clear call stand among them for comparison. Calls follow the shape of the dose curve; as a rule, active = well fitted inhibition curve with a large enough effect; inconclusive = small, poorly fitted or top-dose-only effect; inactive = flat fitted curve, though single readings scatter. Potencies of inconclusive entries are doubtful fits and often do not repeat. Potency is read from the fitted curve at half-maximal effect; tags tell the direction and shape of the fitted curve."}
{"biological_target": "Luciferin 4-monooxygenase (Photinus pyralis) (UniProt P08659)", "sequence (P08659 whole entry, looked up)": "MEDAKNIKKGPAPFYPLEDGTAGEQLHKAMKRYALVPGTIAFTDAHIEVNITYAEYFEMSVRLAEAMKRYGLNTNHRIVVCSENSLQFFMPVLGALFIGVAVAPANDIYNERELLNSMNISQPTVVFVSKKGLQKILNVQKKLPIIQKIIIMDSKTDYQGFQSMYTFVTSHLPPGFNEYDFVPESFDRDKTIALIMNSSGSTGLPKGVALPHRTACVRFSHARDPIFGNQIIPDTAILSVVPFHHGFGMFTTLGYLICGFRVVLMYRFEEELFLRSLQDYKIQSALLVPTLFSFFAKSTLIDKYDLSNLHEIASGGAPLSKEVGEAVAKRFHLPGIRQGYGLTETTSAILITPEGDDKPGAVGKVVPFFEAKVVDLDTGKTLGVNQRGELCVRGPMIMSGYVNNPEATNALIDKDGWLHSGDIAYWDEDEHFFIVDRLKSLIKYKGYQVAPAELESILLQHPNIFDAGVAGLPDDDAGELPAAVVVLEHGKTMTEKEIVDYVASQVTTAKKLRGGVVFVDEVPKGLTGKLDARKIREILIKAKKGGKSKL", "experiment": "qHTS profiling assay for firefly luciferase inhibitor/activator using purifed enzyme and Km concentrations of substrates (counterscreen for miR-21 project); also: nearly all actives have a fitted effect of over 55% in size;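 as to activity change, negative = inhibition: plate controls were vehicle for no effect and reference inhibitor for full effect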", "conditions": "purified FLuc, luminescence inhibition; series mostly up to 57.5 µM; activity change, negative = inhibition: at the top concentration", "in_short": "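Purified P. pyralis luciferase, 10 nM final, with Km-level 10 uM D-luciferin and 10 uM ATP in 50 mM Tris acetate pH 7.5, 10 mM Mg acetate, 0.01% Tween-20, 0.05% BSA; 6-point qHTS titration about 60 µM downward; luminescence read.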"}
{"compound": "COc1cccc(OCc2cc(=O)n3c(-c4ccccc4)csc3n2)c1", "Potency": "inconclusive: 21.3 µM [inhibitor, partial curve]"}
{"compound": "COCCCNC(=O)c1ccc2nc3ccccc3c(=O)n2c1", "Potency": "inconclusive: 26.9 µM [inhibitor, single point]"}
{"compound": "CCOc1ccc(OCC(=O)Nc2nccs2)cc1", "Potency": "active: 0.953 µM"}
{"compound": "COc1nc(-c2ccccc2)ccc1-c1noc(-c2ccccc2Br)n1", "Potency": "inconclusive: 4.78 µM [inhibitor, full curve]"}
{"compound": "CCCc1noc(-c2cccc([N+](=O)[O-])c2)n1", "activity change, negative = inhibition": "inactive: -8.31%"}
{"compound": "Cc1cccc(-n2c(=S)[nH]c3c(oc4ccccc43)c2=O)c1", "Potency": "inconclusive: 7.57 µM [inhibitor, single point]"}
{"compound": "COc1ccc(CCNC(=O)c2cc(C(=O)c3cc(C)ccc3O)cn(CCc3ccc(OC)cc3)c2=O)cc1", "activity change, negative = inhibition": "inactive: 2.45%"}
{"compound": "COc1ccc(/C=N/NC(=O)c2[nH]c3ccc(Br)cc3c2-c2ccccc2)c(C(=O)O)c1OC", "Potency": "inconclusive: 37.9 µM [inhibitor, single point]"}
{"compound": "O=C(CSc1n[nH]c(-c2ccccc2)n1)Nc1ncccn1", "Potency": "inconclusive: 42.6 µM [inhibitor, partial curve, poor fit]"}
{"compound": "CCN(CC)c1nc2c(S(=O)(=O)c3cccc(Cl)c3)nnn2c2ccsc12", "activity change, negative = inhibition": "inactive: -1.4%"}
{"compound": "CCc1ccc(CN(Cc2ccco2)C(=O)COc2ccc(Cl)c(C)c2)cc1", "Potency": "inconclusive: 13.5 µM [inhibitor, partial curve, poor fit]"}
{"compound": "COc1ccc(C(=O)c2c(N)sc3c2CCN(C(=O)OC(C)(C)C)C3)cc1", "activity change, negative = inhibition": "inactive: 1.32%"}
{"compound": "NNC(=O)c1ccc(CSc2n[nH]c(=O)[nH]c2=O)cc1", "Potency": "inconclusive: 2.69 µM [inhibitor, partial curve, poor fit]"}
{"compound": "Cc1ccccc1CSCC(=O)Nc1ccccc1Br", "Potency": "inconclusive: 37.9 µM [inhibitor, partial curve, poor fit]"}
{"compound": "CCN1/C(=C/c2ccc3ccccc3[n+]2CC)C=Cc2ccccc21", "Potency": "inconclusive: 21.3 µM [inhibitor, partial curve]"}
{"compound": "COc1ccc(C2CC2/C(C)=N/OC(=O)c2ccc(F)cc2)cc1", "note": "(configuration not stated)", "Potency": "inconclusive: 16.9 µM [inhibitor, partial curve, poor fit]"}
{"compound": "CCc1ccc2[nH]c(C(=O)Nc3ccc(Br)c(C)n3)cc2c1", "Potency": "inconclusive: 2.39 µM [inhibitor, full curve]"}
{"compound": "CCN1C(c2ccccc2)=C(c2ccccc2)S/C1=C/C=C1\\SC(=S)N(C)C1=O", "Potency": "inconclusive: 7.57 µM [inhibitor, partial curve]"}
{"compound": "CC(=O)NS(=O)(=O)c1ccc(NC(=O)/C=C/c2ccco2)cc1", "Potency": "inconclusive: 26.9 µM [inhibitor, partial curve, poor fit]"}
{"compound": "O=C(CSc1n[nH]c(=O)[nH]c1=O)N/N=C/C=C/c1ccccc1", "Potency": "inconclusive: 33.8 µM [inhibitor, single point]"}
{"compound": "COC(=O)c1c(-c2cccs2)csc1NC(=O)c1ccc(OC)c(OC)c1", "Potency": "inconclusive: 30.1 µM [inhibitor, partial curve, poor fit]"}
{"compound": "Nc1c2c(nc3sc4c(c13)CCCC4)CCCCCC2", "Potency": "inconclusive: 3.38 µM [inhibitor, partial curve, poor fit]"}
{"compound": "CN1C(=O)/C(=C/C=C2\\SCCN2C)OC1=S", "Potency": "inconclusive: 9.53 µM [inhibitor, partial curve, poor fit]"}
{"compound": "COc1ccccc1Nc1nc(NCCO)c2ccccc2n1", "Potency": "inconclusive: 15.1 µM [inhibitor, partial curve]"}
{"compound": "CCC(C)NC(=O)c1cc(-c2ccccc2O)on1", "note": "(configuration not stated)", "Potency": "inconclusive: 9.53 µM [inhibitor, partial curve]"}
{"compound": "Cc1cc(C)n(-c2nc3cc(Cl)ccc3nc2Nc2ccc(CC(=O)O)cc2)n1", "Potency": "inconclusive: 37.9 µM [inhibitor, partial curve, poor fit]"}
{"compound": "CC(C)n1c(/N=C/c2c[nH]c3ccccc23)nc2ccccc21", "Potency": "active: 2.69 µM"}
{"compound": "O=C(NC12CC3CC(CC(C3)C1)C2)N(Cc1ccccc1)Cc1ccncc1", "activity change, negative = inhibition": "inactive: -0.631%"}
{"compound": "COc1ccc2nc(NC(=O)c3nc(SCc4ccccc4F)ncc3Cl)sc2c1", "activity change, negative = inhibition": "inactive: 3.13%"}
{"compound": "Cc1ccc(OCc2ccc(-c3ccccc3)cc2)c([N+](=O)[O-])n1", "Potency": "inconclusive: 16.9 µM [inhibitor, partial curve]"}
{"compound": "CCC(COC)NC(=O)CCc1nnc(Cc2cccc(C(F)(F)F)c2)o1", "note": "(configuration not stated)", "Potency": "inconclusive: 37.9 µM [inhibitor, single point]"}
{"compound": "CCOc1ccc(/C=N/NC(=O)c2[nH]ncc2Br)c(O)c1", "Potency": "active: 2.13 µM"}
{"compound": "c1ccc(-n2ncc3c(N4CCCCC4)ncnc32)cc1", "Potency": "active: 0.269 µM"}
{"compound": "COCCn1ccc2c(OCC(=O)Nc3ccccc3F)cccc2c1=O", "activity change, negative = inhibition": "inactive: -2.53%"}
{"compound": "COc1cccc(-c2nn(C)c3sc(C(=O)Nc4ccc5c(c4)OCCO5)cc23)c1", "Potency": "inconclusive: 9.53 µM [inhibitor, partial curve]"}
{"compound": "O=C(NCC1CCCN(C(=O)c2cccnc2)C1)c1ccc(-c2ccccc2)cc1", "note": "(configuration not stated)", "Potency": "inconclusive: 26.9 µM [inhibitor, partial curve, poor fit]"}
{"compound": "COC(=O)c1cc(NC(=O)Cc2ccc(OC)cc2)cc(C(=O)OC)c1", "Potency": "inconclusive: 3.79 µM [inhibitor, partial curve, poor fit]"}
{"compound": "CC(C)c1ccc2c(c1)C(c1cccs1)=NNC(c1ccncc1)=N2", "Potency": "inconclusive: 30.1 µM [inhibitor, single point]"}
{"compound": "CC(C)(C)C1CCc2c(sc3nnn(CCOc4ccccc4)c(=O)c23)C1", "note": "(configuration not stated)", "Potency": "inconclusive: 8.49 µM [inhibitor, partial curve, poor fit]"}
{"compound": "COc1cc(C2NC(=O)NC(c3ccccc3)=C2C(C)=O)cc([N+](=O)[O-])c1O", "note": "(configuration not stated)", "Potency": "inconclusive: 26.9 µM [inhibitor, single point]"}
{"compound": "CCOC(=O)COc1ccc(Br)cc1/C=C1\\SC(N)=NC1=O", "activity change, negative = inhibition": "inactive: 0.337%"}
{"compound": "Cc1cccc(-c2nc(CSCC(=O)NCCc3ccc(Cl)cc3)c(C)o2)c1", "Potency": "inconclusive: 23.9 µM [inhibitor, partial curve, poor fit]"}
